This is an account of results in article PMC12820563.

Some of the results follow. The list includes weakly bound sequences.

The assay addresses T1, MBP-FoxP3dN (UniProt Q99JB6).
T1 sequence: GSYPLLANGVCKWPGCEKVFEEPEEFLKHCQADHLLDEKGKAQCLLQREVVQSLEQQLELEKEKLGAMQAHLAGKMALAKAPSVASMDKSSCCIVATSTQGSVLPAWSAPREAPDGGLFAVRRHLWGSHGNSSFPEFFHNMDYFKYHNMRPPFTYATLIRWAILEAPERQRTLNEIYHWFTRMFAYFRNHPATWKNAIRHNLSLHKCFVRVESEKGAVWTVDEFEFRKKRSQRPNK
Nature of the assay: PD-seq (MBP pull-down with sequencing). The following applies: 20 mM Tris-HCl pH 7.5, 100 mM NaCl, 1.5 mM MgCl2, 0.4 uM protein, 0.1 uM dsDNA library, 30 min, room temperature, amylose pull-down; high values mean tight binding; double strand, one strand shown.
Turning to “GATGATTGTTCTCCCAGCTGATGAATTATGCCCATCGAGTAAACAAATTTTCCTAATCTTTCTGTTCAAGCGCCATCTAC”, the binding signal (RPM ratio (pull-down/input)) was found to be 1.9.

On to “GATGATTGTTCTCCCAGCTGATGAATTACTTGCGTCGAGTAAACAAATTTTCCTAATCTTTCTGTTCAAGCGCCATCTAC”, for which the binding signal (RPM ratio (pull-down/input)) was 0.618.

Consider “GATGATTGTTCTCCCAGCTGATGAATTAGCGCGTTCGAGTAAACAAATTTTCCTAATCTTTCTGTTCAAGCGCCATCTAC”, for which the binding signal (RPM ratio (pull-down/input)) was 1.62.

Turning to “GATGATTGTTCTCCCAGCTGATGAATTAAAACACTCGAGTAAACAAATTTTCCTAATCTTTCTGTTCAAGCGCCATCTAC”, the binding signal (RPM ratio (pull-down/input)) amounted to 0.776.

Consider “GATGATTGTTCTCCCAGCTGATGAATTCCACAGATCGAGTAAACAAATTTTCCTAATCTTTCTGTTCAAGCGCCATCTAC”, for which the binding signal (RPM ratio (pull-down/input)) came out at 0.212.

Turning to “GATGATTGTTCTCCCAGCTGATGAATTATTATCATCGAGTAAACAAATTTTCCTAATCTTTCTGTTCAAGCGCCATCTAC”, the binding signal (RPM ratio (pull-down/input)) worked out at 1.13.

Regarding “GATGATTGTTCTCCCAGCTGATGAATTAGACAATTCGAGTAAACAAATTTTCCTAATCTTTCTGTTCAAGCGCCATCTAC”, the binding signal (RPM ratio (pull-down/input)) came to 0.526.

Regarding “GATGATTGTTCTCCCAGCTGATGAATTGTCACGATCGAGTAAACAAATTTTCCTAATCTTTCTGTTCAAGCGCCATCTAC”, the binding signal (RPM ratio (pull-down/input)) was found to be 0.439.

Regarding “GATGATTGTTCTCCCAGCTGATGAATTGGTAGACTCGAGTAAACAAATTTTCCTAATCTTTCTGTTCAAGCGCCATCTAC”, the binding signal (RPM ratio (pull-down/input)) amounted to 0.482.

For the sequence “GATGATTGTTCTCCCAGCTGATGAATTAGAGGCGTCGAGTAAACAAATTTTCCTAATCTTTCTGTTCAAGCGCCATCTAC”, the binding signal (RPM ratio (pull-down/input)) amounted to 1.19.

For the sequence “GATGATTGTTCTCCCAGCTGATGAATTCATCATTTCGAGTAAACAAATTTTCCTAATCTTTCTGTTCAAGCGCCATCTAC”, the binding signal (RPM ratio (pull-down/input)) was found to be 1.25.

For the sequence “GATGATTGTTCTCCCAGCTGATGAATTATGGATATCGAGTAAACAAATTTTCCTAATCTTTCTGTTCAAGCGCCATCTAC”, the binding signal (RPM ratio (pull-down/input)) is 0.65.

For “GATGATTGTTCTCCCAGCTGATGAATTGTCTTTGTCGAGTAAACAAATTTTCCTAATCTTTCTGTTCAAGCGCCATCTAC”, the binding signal (RPM ratio (pull-down/input)) was found to be 1.12.

On to “GATGATTGTTCTCCCAGCTGATGAATTTCTCCCATCGAGTAAACAAATTTTCCTAATCTTTCTGTTCAAGCGCCATCTAC”, for which the binding signal (RPM ratio (pull-down/input)) worked out at 0.254.

In the case of “GATGATTGTTCTCCCAGCTGATGAATTTTTTTACTCGAGTAAACAAATTTTCCTAATCTTTCTGTTCAAGCGCCATCTAC”, the binding signal (RPM ratio (pull-down/input)) is 0.35.

For “GATGATTGTTCTCCCAGCTGATGAATTGCCCCGCTCGAGTAAACAAATTTTCCTAATCTTTCTGTTCAAGCGCCATCTAC”, the binding signal (RPM ratio (pull-down/input)) was 0.372.

“GATGATTGTTCTCCCAGCTGATGAATTATACTGGTCGAGTAAACAAATTTTCCTAATCTTTCTGTTCAAGCGCCATCTAC”: the binding signal (RPM ratio (pull-down/input)) turned out to be 0.433.

For the sequence “GATGATTGTTCTCCCAGCTGATGAATTGGGTGTCTCGAGTAAACAAATTTTCCTAATCTTTCTGTTCAAGCGCCATCTAC”, the binding signal (RPM ratio (pull-down/input)) worked out at 1.29.

With “GATGATTGTTCTCCCAGCTGATGAATTGGTCTGCTCGAGTAAACAAATTTTCCTAATCTTTCTGTTCAAGCGCCATCTAC”, the binding signal (RPM ratio (pull-down/input)) stood at 0.347.

Take “GATGATTGTTCTCCCAGCTGATGAATTGCGGTGCTCGAGTAAACAAATTTTCCTAATCTTTCTGTTCAAGCGCCATCTAC”: the binding signal (RPM ratio (pull-down/input)) was found to be 0.874.

Consider “GATGATTGTTCTCCCAGCTGATGAATTGCAGGTCTCGAGTAAACAAATTTTCCTAATCTTTCTGTTCAAGCGCCATCTAC”, for which the binding signal (RPM ratio (pull-down/input)) was determined as 0.813.

For the sequence “GATGATTGTTCTCCCAGCTGATGAATTATCCCCCTCGAGTAAACAAATTTTCCTAATCTTTCTGTTCAAGCGCCATCTAC”, the binding signal (RPM ratio (pull-down/input)) is 0.246.

Take “GATGATTGTTCTCCCAGCTGATGAATTATAACGCTCGAGTAAACAAATTTTCCTAATCTTTCTGTTCAAGCGCCATCTAC”: the binding signal (RPM ratio (pull-down/input)) turned out to be 0.497.

Regarding “GATGATTGTTCTCCCAGCTGATGAATTGTCGTACTCGAGTAAACAAATTTTCCTAATCTTTCTGTTCAAGCGCCATCTAC”, the binding signal (RPM ratio (pull-down/input)) was found to be 0.671.

Consider “GATGATTGTTCTCCCAGCTGATGAATTCGTCTCATCGAGTAAACAAATTTTCCTAATCTTTCTGTTCAAGCGCCATCTAC”, for which the binding signal (RPM ratio (pull-down/input)) was determined as 0.473.

Regarding “GATGATTGTTCTCCCAGCTGATGAATTGGCGTTATCGAGTAAACAAATTTTCCTAATCTTTCTGTTCAAGCGCCATCTAC”, the binding signal (RPM ratio (pull-down/input)) was determined as 1.24.

For “GATGATTGTTCTCCCAGCTGATGAATTTGGTTGGTCGAGTAAACAAATTTTCCTAATCTTTCTGTTCAAGCGCCATCTAC”, the binding signal (RPM ratio (pull-down/input)) was found to be 2.96.

Consider “GATGATTGTTCTCCCAGCTGATGAATTTCAGGGGTCGAGTAAACAAATTTTCCTAATCTTTCTGTTCAAGCGCCATCTAC”, for which the binding signal (RPM ratio (pull-down/input)) is 0.329.

On to “GATGATTGTTCTCCCAGCTGATGAATTCACCTGGTCGAGTAAACAAATTTTCCTAATCTTTCTGTTCAAGCGCCATCTAC”, for which the binding signal (RPM ratio (pull-down/input)) worked out at 0.245.

Turning to “GATGATTGTTCTCCCAGCTGATGAATTAGCGCGGTCGAGTAAACAAATTTTCCTAATCTTTCTGTTCAAGCGCCATCTAC”, the binding signal (RPM ratio (pull-down/input)) was 0.394.

For “GATGATTGTTCTCCCAGCTGATGAATTCACGTATTCGAGTAAACAAATTTTCCTAATCTTTCTGTTCAAGCGCCATCTAC”, the binding signal (RPM ratio (pull-down/input)) came out at 0.972.
